The record followed here is the supplement of paper PMC12462457.

The assay concerns OVCAR8. In words: cell count relative to DMSO vehicle (fold change); OVCAR8 is a high-grade serous ovarian cancer line and CX-5461 an RNA polymerase I inhibitor; higher = more surviving senescent cells (less killing). The conditions noted are these: senescence inducer: CX-5461 3 µM 48 h, then 6 d recovery (CX senescent), exposure time 24 h.

Where a name gives a salt, the structure may show the parent alone. ± gives the standard deviation of the averaged measurements. The list shows a part of the results.

On to `C=CCSSSCC=C`, for which the cell count turned out to be 1.21 ± 0.38 (compound dose 1 µM) and 1.07 ± 0.15 (compound dose 5 µM).

Take `Cc1cc(C(C)(C)C)c(O)c(C(C)(C)C)c1`: the cell count is 1.09 ± 0.037 (compound dose 1 µM) and 1.17 ± 0.16 (compound dose 5 µM).

For `C/C(=C\c1csc(C)n1)[C@@H]1C[C@@H]2O[C@]2(C)CCC[C@H](C)[C@H](O)[C@@H](C)C(=O)C(C)(C)[C@@H](O)CC(=O)N1` [Ixabepilone], the cell count (compound dose 1 µM) worked out at 0.973 ± 0.1 and the cell count (compound dose 5 µM) worked out at 1.06 ± 0.28.

For `C1COC(NC(C2CC2)C2CC2)=N1` [Rilmenidine (hemifumarate)], the cell count reads like this: (compound dose 1 µM) 0.987 ± 0.081; (compound dose 5 µM) 1.2 ± 0.2.

For `O=C(O)c1cn(C2CC2)c2cc(N3CCNCC3)c(F)cc2c1=O`, the cell count by setting is: (compound dose 1 µM) 1.17 ± 0.22; (compound dose 5 µM) 1.01 ± 0.13.

For the compound `CN1CC(=O)N2[C@H](c3ccc4c(c3)OCO4)c3[nH]c4ccccc4c3C[C@@H]2C1=O` [Tadalafil], the cell count came out at 1.1 ± 0.094 (compound dose 1 µM) and 1.02 ± 0.12 (compound dose 5 µM).

For the compound `CCN(C(=O)c1c(O)c2c(Cl)cccc2n(C)c1=O)c1ccccc1` [Laquinimod], the cell count runs as follows: (compound dose 1 µM) 1.07 ± 0.15; (compound dose 5 µM) 1.02 ± 0.059.

Regarding `CC(NC(=O)c1ccccc1/N=C/c1c(O)ccc2ccccc12)c1ccccc1` (centres undefined) [Sirtinol], the cell count is, setting by setting: (compound dose 1 µM) 1 ± 0.12; (compound dose 5 µM) 1.14 ± 0.086.

As to `O=C(Nc1nc2ccc(NC(=O)C34CC5CC(CC(C5)C3)C4)cc2s1)c1ccccc1`, the cell count (compound dose 1 µM) turned out to be 1.03 ± 0.018 and the cell count (compound dose 5 µM) was found to be 1.03 ± 0.071.

Consider `CCOC(=O)c1cnc2ccc(-c3cncc(NS(=O)(=O)c4ccccc4)c3)cn12`, for which the cell count came out at 1.06 ± 0.089 (compound dose 1 µM) and 0.485 ± 0.0057 (compound dose 5 µM).

As for `COc1cc2cc(c1Cl)N(C)C(=O)CC(O)C1(C)OC1C(C)C1CC(O)(NC(=O)O1)C(OC)/C=C/C=C(\C)C2` (centres undefined) [Maytansinol], the cell count was 1.11 ± 0.063 (compound dose 1 µM) and 1.01 ± 0.076 (compound dose 5 µM).

Regarding `COc1cc(C(=O)N2CCC(N3CCN(C)CC3)CC2)ccc1Nc1ncc2c(n1)N(C)c1ccccc1C(=O)N2C`, the cell count runs as follows: (compound dose 1 µM) 1.07 ± 0.17; (compound dose 5 µM) 1.02 ± 0.033.

On to `Cc1[nH]c2ccc(F)cc2c1-c1nc2c3cccnc3c3ncccc3c2[nH]1`, for which the cell count is, setting by setting: (compound dose 1 µM) 1.17 ± 0.12; (compound dose 5 µM) 1.101 ± 0.0035.

The compound `Cc1ccc(-c2cn3c4c(sc3n2)CCCC4)cc1` [Pifithrin-β (hydrobromide)] displayed a cell count (compound dose 1 µM) of 1.03 ± 0.093 and a cell count (compound dose 5 µM) of 1.17 ± 0.16.

Take `CC(C)=CCC[C@](C)(O)[C@H]1CC[C@]2(C)[C@@H]1[C@H](O)C[C@@H]1[C@@]3(C)CC[C@H](O)C(C)(C)[C@@H]3CC[C@]12C` [(20S)-Protopanaxadiol]: the cell count is, setting by setting: (compound dose 1 µM) 1.05 ± 0.037; (compound dose 5 µM) 1.04 ± 0.1.

As for `CCCCCCCC(=O)/C=C/c1ccc(O)c(OC)c1` [(E)-[6]-Dehydroparadol], the cell count is, setting by setting: (compound dose 1 µM) 1.01 ± 0.0021; (compound dose 5 µM) 1.13 ± 0.1.

As to `Cc1cc2nc3c(=O)[nH]c(=O)nc-3n(C)c2cc1C=O`, the cell count by setting is: (compound dose 1 µM) 1.02 ± 0.16; (compound dose 5 µM) 1 ± 0.042.

`O=C(O)C(=O)O.[NH-][C@@H]1CCCC[C@H]1[NH-].[Pt+2]` registered a cell count (compound dose 1 µM) of 1.1 ± 0.085 and a cell count (compound dose 5 µM) of 1.01 ± 0.084.

Turning to `COc1ccc(Cn2ccc3ccc(C(=O)NO)cc32)cc1`, the cell count (compound dose 1 µM) is 0.913 ± 0.08 and the cell count (compound dose 5 µM) amounted to 1.088 ± 0.0014.

As for `CC#CC(=O)N1CC[C@@H](n2c(=O)n(-c3ccc(Oc4ccccc4)cc3)c3c(N)ncnc32)C1` [Tirabrutinib], the cell count is, setting by setting: (compound dose 1 µM) 1.16 ± 0.27; (compound dose 5 µM) 1.08 ± 0.35.

With `CC1(C)O[C@H]2CC(=O)OC[C@]23[C@H]2CC[C@@]4(C)[C@H](c5ccoc5)OC(=O)[C@H]5O[C@]54[C@]2(C)C(=O)C[C@@H]13` [Limonin], the cell count (compound dose 1 µM) was determined as 1.09 ± 0.031 and the cell count (compound dose 5 µM) is 1.18 ± 0.081.

As to `CO[C@H]1/C=C\C=C(/C)C(=O)NC2=CC(=O)C(NCCN(C)C)=C(C[C@@H](C)C[C@H](OC)[C@H](O)[C@@H](C)/C=C(\C)[C@@H]1OC(N)=O)C2=O` [Alvespimycin (hydrochloride)], the cell count was 1.09 ± 0.013 (compound dose 1 µM) and 1.002 ± 0.0028 (compound dose 5 µM).

As for `CC1=NN(c2ccccc2)C(=O)C1`, the cell count is 1.07 ± 0.16 (compound dose 1 µM) and 0.995 ± 0.18 (compound dose 5 µM).

For `CC(=O)c1ccc2c(c1)c1cc(C(C)=O)ccc1n2CCNC(C)C` [CBL0137 hydrochloride], the cell count by setting is: (compound dose 1 µM) 1.17 ± 0.14; (compound dose 5 µM) 0.852 ± 0.013.

Take `O=C(/C=C/c1ccc(O)cc1)CC(=O)/C=C/c1ccc(O)cc1` [Bisdemethoxycurcumin]: the cell count runs as follows: (compound dose 1 µM) 1.12 ± 0.05; (compound dose 5 µM) 1.14 ± 0.1.

On to `CN[C@@H](C)C(=O)N[C@H]1CN(C(=O)CC(C)C)CC[C@H]2CC[C@@H](C(=O)NC(c3ccccc3)c3ccccc3)N2C1=O` [Xevinapant], for which the cell count runs as follows: (compound dose 1 µM) 0.969 ± 0.055; (compound dose 5 µM) 0.81 ± 0.018.

For the compound `Cc1cc(=O)[nH]c(=S)[nH]1`, the cell count is 1.0425 ± 0.00071 (compound dose 1 µM) and 1.13 ± 0.072 (compound dose 5 µM).

Take `CC[C@]1(O)C[C@H]2CN(CCc3c([nH]c4ccccc34)[C@@](C(=O)OC)(c3cc4c(cc3OC)N(C=O)[C@H]3[C@@](O)(C(=O)OC)[C@H](OC(C)=O)[C@]5(CC)C=CCN6CC[C@]43[C@@H]65)C2)C1` [Vincristine (sulfate)]: the cell count by setting is: (compound dose 1 µM) 0.975 ± 0.059; (compound dose 5 µM) 0.7 ± 0.069.

Turning to `CC(=O)Nc1ccc(C(=O)Nc2ccc(F)cc2N)cc1`, the cell count by setting is: (compound dose 1 µM) 1.19 ± 0.42; (compound dose 5 µM) 1.36 ± 0.44.

On to `Oc1ccc(/C=C/c2cc(O)cc(O)c2)cc1`, for which the cell count (compound dose 1 µM) worked out at 1.11 ± 0.1 and the cell count (compound dose 5 µM) amounted to 1.1 ± 0.063.

`CCN(CC)CCNC(=O)c1c(C)[nH]c(/C=C2\C(=O)Nc3ccc(F)cc32)c1C` [Sunitinib]: the cell count worked out at 1.08 ± 0.16 (compound dose 1 µM) and 0.969 ± 0.017 (compound dose 5 µM).

As for `CCN(CC)CCNC(=O)c1c(C)[nH]c(/C=C2\C(=O)Nc3ccc(F)cc32)c1C` [Sunitinib Malate], the cell count stood at 1.15 ± 0.18 (compound dose 1 µM) and 0.908 ± 0.24 (compound dose 5 µM).
